According to the RNAGym collection of RNA variant scans (doi:10.1093/nar/gkz1192):
Read counts are not given, so values of variants with three or more changes are uncertain.

B1: CPEB3 Ribozyme (parent)
chain: UAACAGGGGGCCACAGCAGAAGCGUUCACGUCGCAGCCCCUGUCAGAUUCUGGUGAAUCUGCGAAUUCUGCUGUAUAUCUC

Variants of: B1
Assay: self-cleavage, relative activity (ratio to wild type); higher = more cleavage; in vitro, sequencing
How it was run: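 Barcoded CPEB3 ribozyme mutants, produced by rounds of error-prone PCR, self-cleaved while being transcribed with T7 RNA polymerase for 5 hours at 37°C and during a subsequent 15 min DNase I step before EDTA was added. Sequencing of template-switched cDNA on Illumina gave cleaved and total reads, and DNA sequencing assigned barcodes to variants. Each variant's relative activity is its cleaved/total read fraction divided by the unmutated ribozyme's fraction, averaged across three batches. A variant needed a minimum of 5 reads.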
A13U C40U U69A showed a self-cleavage of 0.3.
A13U A45U C62U gave a self-cleavage of 0.17.
Work on A13U G33U U41A A64U yielded a self-cleavage of 0.12.
Work on A13U A57G U69A yielded a self-cleavage of 0.71.
Work on A13U A57G U69C yielded a self-cleavage of 0.49.
Variant A13U U41A U43A U67G C81U has a self-cleavage of 0.12.
Variant A13U A45U U58C U67C has a self-cleavage of 0.17.
A13U A47G A64G gave a self-cleavage of 0.9.
Variant A13U G52A G55C has a self-cleavage of 1.11.
A13U U31G A35G C37A showed a self-cleavage of 0.35.
With A13U U25C C29U U54C U78C the self-cleavage was 0.08.
A13U C23U U66C U72A showed a self-cleavage of 0.05.
Variant A13U C40U U51A U78A has a self-cleavage of 1.13.
A13U U31A U54C gave a self-cleavage of 0.88.
A13U U31A U41A A45U A57G U72A U78C showed a self-cleavage of 0.3.
With A13U G36U A45G U60A the self-cleavage was 0.04.
For A13U C40A U43C U48A U69A A77G, the self-cleavage was 0.06.
A13U U26C A77C U78A showed a self-cleavage of 0.7.
Variant A13U C50U U69C has a self-cleavage of 0.45.
With A13U A64G G70A the self-cleavage was 0.26.
In the case of A13U U26C C27U A45G U66C A77G, the self-cleavage is reported as 0.02.
A13U U26A U41C A65G U72A showed a self-cleavage of 0.25.
For A13U C37A U60C, the self-cleavage was 0.15.
Variant A13U C17U A21G U25A U74G has a self-cleavage of 0.46.
Variant A13U U25A U69A has a self-cleavage of 0.12.
For A13U U25A U69C, the self-cleavage was 0.16.
A13U U31C U41A U49C U58C gave a self-cleavage of 0.07.
A13U U31A A35G G36A U78C showed a self-cleavage of 0.28.
A13U U25C C81A showed a self-cleavage of 0.1.
Work on A13U U25C U74A yielded a self-cleavage of 0.16.
A13U C17G U25C U49A U78C gave a self-cleavage of 0.05.
A13U U25C U67C showed a self-cleavage of 0.16.
With A13U U31C C32U U54C C81U the self-cleavage was 0.
With A13U U25A U48C the self-cleavage was 0.13.
Variant A13U A35U U49C U67A has a self-cleavage of 0.11.
For A13U C14A A28G C59A C68A, the self-cleavage was 0.08.
Variant A13U A75G U78C has a self-cleavage of 1.18.
A13U C29U U41A U49C U58C U67A A75U gave a self-cleavage of 0.05.
With A13U U26C U48C the self-cleavage was 0.51.
In the case of A13U C40U A45G U60C, the self-cleavage is reported as 1.18.
For A13U C40U A45G U60A, the self-cleavage was 0.43.
A13U C27G U31A A35U U48A showed a self-cleavage of 0.05.
For A13U G24A A56G U80C, the self-cleavage was 0.23.
For A13U U25C U31C U43A A64G, the self-cleavage was 0.12.
Variant A13U U31C U54A A75G has a self-cleavage of 1.15.
A13U C37A U54C U69C gave a self-cleavage of 0.1.
A13U C29A U43A gave a self-cleavage of 0.68.
In the case of A13U C14U C38G C40A U58C A75U, the self-cleavage is reported as 0.05.
A13U G24A A28G U69A gave a self-cleavage of 0.06.
For A13U C37U U60C, the self-cleavage was 0.28.
A13U U25C G55C U72A showed a self-cleavage of 0.09.
A13U U25C A45G U51A U76A gave a self-cleavage of 0.05.
For A13U U41A A57G U72C, the self-cleavage was 0.23.
A13U U25A C37A U60C showed a self-cleavage of 0.08.
Work on A13U U26A A64G yielded a self-cleavage of 1.01.
Variant A13U C39A U49A U60C U66C U76A has a self-cleavage of 0.06.
A13U U26A A65G gave a self-cleavage of 0.55.
With A13U G61A A64G U66C G73A U78C the self-cleavage was 0.26.
In the case of A13U A35U U76A, the self-cleavage is reported as 1.12.
Variant A13U G30A U69A has a self-cleavage of 0.
With A13U U31A A45C the self-cleavage was 0.16.
For A13U C34U U43C U49C, the self-cleavage was 0.11.
With A13U G22A U51C the self-cleavage was 0.15.
For A13U U31C A75U, the self-cleavage was 0.68.
A13U A35U U49A gave a self-cleavage of 0.23.
A13U C23U G30C U41A C44A U60C gave a self-cleavage of 0.06.
A13U U26A A45G gave a self-cleavage of 0.96.
For A13U A57G A64G, the self-cleavage was 1.21.
In the case of A13U C37A U69A, the self-cleavage is reported as 0.2.
A13U U31C A45G A77G showed a self-cleavage of 0.81.
For A13U A56G A64G, the self-cleavage was 1.17.
For A13U A56G A64U, the self-cleavage was 0.4.
For A13U A35G U67C, the self-cleavage was 0.65.
In the case of A13U U25C A47G, the self-cleavage is reported as 0.27.
A13U G24A U69A A75U showed a self-cleavage of 0.12.
In the case of A13U U26A U31C U54G U60C U67C U69A, the self-cleavage is reported as 0.15.
For A13U U25C C39U U69A, the self-cleavage was 0.36.
Work on A13U U41A U49C A65G U80G yielded a self-cleavage of 0.04.
A13U C23U C40A U49A G63C U78C gave a self-cleavage of 0.06.
A13U C40U G52A U67G U69A gave a self-cleavage of 0.11.
For A13U G19U U78C, the self-cleavage was 0.13.
With A13U U31A U72C the self-cleavage was 0.22.
For A13U U31A U72A, the self-cleavage was 0.41.
For A13U G24A A28C C34A U48C, the self-cleavage was 0.13.
Variant A13U A65G U66C U76A has a self-cleavage of 0.42.
In the case of A13U U31A U49A U66G, the self-cleavage is reported as 0.08.
A13U C32U U72G showed a self-cleavage of 0.17.
In the case of A13U G24A U51C A65G A77G, the self-cleavage is reported as 0.07.
A13U G16A A20G gave a self-cleavage of 0.42.
In the case of A13U G19U U25C U54A, the self-cleavage is reported as 0.07.
Variant A13U U31A A35G has a self-cleavage of 1.19.
Variant A13U U25C U54C A65U has a self-cleavage of 0.19.
For A13U U31C U51C, the self-cleavage was 0.72.
For A13U U41A U54A U67C, the self-cleavage was 0.11.
In the case of A13U C17G U26C U48C, the self-cleavage is reported as 0.13.
In the case of A13U U26A C29G A35U U72A, the self-cleavage is reported as 0.09.
Work on A13U U26A U41A yielded a self-cleavage of 0.12.
A13U U25A U26G U49C U51C A64G gave a self-cleavage of 0.06.
With A13U G42C U58A U67A U76C the self-cleavage was 0.11.
Variant A13U U26C U41C G42U has a self-cleavage of 0.22.
A13U U26C A57U showed a self-cleavage of 0.11.
A13U U25C U26C A28G G42U G63A showed a self-cleavage of 0.09.
Work on A13U U25C A35G U67C yielded a self-cleavage of 0.09.
With A13U C44U U60A the self-cleavage was 0.44.
Work on A13U A56G U60C C79G yielded a self-cleavage of 0.74.
For A13U A45G C68A, the self-cleavage was 0.43.
A13U U31C U43C U51A A77U showed a self-cleavage of 0.71.
Variant A13U A45U U48A A57G U60C has a self-cleavage of 0.07.
In the case of A13U U31C A35G U80C, the self-cleavage is reported as 1.22.
For A13U C37U U49C C59G, the self-cleavage was 0.05.
A13U C29A A57G A64G U66C A77U showed a self-cleavage of 0.12.
In the case of A13U G22A G42A U43C U67G U78C, the self-cleavage is reported as 0.14.
A13U U26C C32U showed a self-cleavage of 0.14.
A13U G30A C50A C62G gave a self-cleavage of 0.12.
With A13U C34U C50U U76C the self-cleavage was 0.28.
Work on A13U C38U U48C yielded a self-cleavage of 0.25.
With A13U C34U U49C the self-cleavage was 0.19.
A13U A56U U58C A64C gave a self-cleavage of 0.16.
In the case of A13U A35U A56U U66C, the self-cleavage is reported as 0.09.
Work on A13U U26A U43G yielded a self-cleavage of 0.25.
In the case of A13U U25A A35U U54C, the self-cleavage is reported as 0.44.
For A13U G42C C44G A64U U72A U80C, the self-cleavage was 0.14.
For A13U C14A A18U A56C U67C, the self-cleavage was 0.09.
A13U C17U U51C U60C C62U A75U gave a self-cleavage of 0.12.
In the case of A13U A57G U58A, the self-cleavage is reported as 0.28.
In the case of A13U A45U U48A A56G U67A, the self-cleavage is reported as 0.31.
With A13U U41A U49C U58C the self-cleavage was 0.39.
Variant A13U U25C C44A G53U U54C U76C has a self-cleavage of 0.06.
Variant A13U U31C A45G U69G has a self-cleavage of 0.13.
With A13U U26C C27U A45U C59U U67A U80A the self-cleavage was 0.04.
For A13U U25C A77U, the self-cleavage was 0.21.
Work on A13U G16A C37A U48C yielded a self-cleavage of 0.07.
Variant A13U U31C C32A U78C has a self-cleavage of 0.17.
With A13U A56G U72C U74A the self-cleavage was 1.17.
A13U U26A U51A U78C showed a self-cleavage of 0.98.
For A13U A45U G52A G61C, the self-cleavage was 0.18.
A13U U31A U43G U58C showed a self-cleavage of 0.17.
For A13U U25C U31C U51A U58C A65G, the self-cleavage was 0.06.
A13U U26C C38U A56G showed a self-cleavage of 0.21.
A13U A47G U74G gave a self-cleavage of 1.32.
A13U C27U C39U A56G showed a self-cleavage of 0.1.
In the case of A13U C40U U67A, the self-cleavage is reported as 0.46.
Variant A13U G30U U43C U54C U60A has a self-cleavage of 0.04.
A13U U25C G33A U58G A77G U78C gave a self-cleavage of 0.09.
Variant A13U G24A G30A U51A has a self-cleavage of 0.17.
In the case of A13U G24C C29U U31C U48C A57G, the self-cleavage is reported as 0.05.
In the case of A13U U25G A57U U72C U80C, the self-cleavage is reported as 0.08.
With A13U C14A U60C U67C the self-cleavage was 0.09.
A13U G16A A35G U43A A56U U69C gave a self-cleavage of 0.16.
Work on A13U A65G U78C yielded a self-cleavage of 0.55.
Variant A13U U26A U43C U49C A65G U78A has a self-cleavage of 0.13.
Work on A13U U25C G46U A56G U58C yielded a self-cleavage of 0.
Work on A13U G24U U49C yielded a self-cleavage of 0.15.
Variant A13U C14U C50U U66C has a self-cleavage of 0.3.
For A13U C23G A57U, the self-cleavage was 0.1.
A13U C23G A57G gave a self-cleavage of 0.16.
With A13U C39A A56G U72C the self-cleavage was 0.17.
A13U U31A A64U U74C A75G gave a self-cleavage of 0.11.
Variant A13U C14A A64G has a self-cleavage of 0.86.
For A13U U26C A35U U51A, the self-cleavage was 0.08.
With A13U U31G A35U A47G U51A U67C U72C the self-cleavage was 0.12.
For A13U U25G U60C U72C U80C, the self-cleavage was 0.1.
In the case of A13U G33A A35G A45U A56U U66A, the self-cleavage is reported as 0.05.
With A13U A56G U72C the self-cleavage was 1.11.
Variant A13U U25A A47U C50A has a self-cleavage of 0.08.
For A13U U26A C32U A57C A65G U80C, the self-cleavage was 0.08.
A13U G36A U67C U76C showed a self-cleavage of 0.06.
